Where two headings read alike, the source gives them in different places.
Tests used:
Assay in all cases: cell-based or functional assay
[1] = molecular target: T1, ALK1 / BMPRII receptor pair (BMPR Type I receptor ALK1 and BMPR Type II receptor BMPRII) on cells (UniProt P37023 22-503; Q13873 27-1038, limits assumed)
[2] = molecular target: T1, ALK1 / BMPRII receptor pair (BMPR Type …); remark: listed apart in the source
[3] = molecular target: T1, ALK1 / BMPRII receptor pair (BMPR Type …); remark: listed apart in the source
[4] = molecular target: T1, ALK1 / BMPRII receptor pair (BMPR Type …); remark: listed apart in the source
[5] = molecular target: T1, ALK1 / BMPRII receptor pair (BMPR Type …); remark: listed apart in the source

T1 sequence (P37023 22-503 limits assumed, chain 1 of 2): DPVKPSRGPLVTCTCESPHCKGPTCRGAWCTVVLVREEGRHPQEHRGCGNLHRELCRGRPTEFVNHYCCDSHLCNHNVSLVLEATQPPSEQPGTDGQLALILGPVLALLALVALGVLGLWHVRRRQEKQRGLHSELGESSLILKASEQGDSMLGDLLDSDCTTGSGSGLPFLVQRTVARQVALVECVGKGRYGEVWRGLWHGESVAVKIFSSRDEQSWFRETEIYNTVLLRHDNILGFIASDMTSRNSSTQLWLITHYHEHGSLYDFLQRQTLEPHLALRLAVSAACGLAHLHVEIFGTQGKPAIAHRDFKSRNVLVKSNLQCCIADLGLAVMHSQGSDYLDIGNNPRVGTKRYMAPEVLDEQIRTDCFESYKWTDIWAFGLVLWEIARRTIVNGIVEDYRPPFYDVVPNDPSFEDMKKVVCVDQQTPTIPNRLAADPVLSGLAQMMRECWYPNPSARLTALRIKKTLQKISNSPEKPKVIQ
T1 sequence (Q13873 27-1038 limits assumed, chain 2 of 2, further chain): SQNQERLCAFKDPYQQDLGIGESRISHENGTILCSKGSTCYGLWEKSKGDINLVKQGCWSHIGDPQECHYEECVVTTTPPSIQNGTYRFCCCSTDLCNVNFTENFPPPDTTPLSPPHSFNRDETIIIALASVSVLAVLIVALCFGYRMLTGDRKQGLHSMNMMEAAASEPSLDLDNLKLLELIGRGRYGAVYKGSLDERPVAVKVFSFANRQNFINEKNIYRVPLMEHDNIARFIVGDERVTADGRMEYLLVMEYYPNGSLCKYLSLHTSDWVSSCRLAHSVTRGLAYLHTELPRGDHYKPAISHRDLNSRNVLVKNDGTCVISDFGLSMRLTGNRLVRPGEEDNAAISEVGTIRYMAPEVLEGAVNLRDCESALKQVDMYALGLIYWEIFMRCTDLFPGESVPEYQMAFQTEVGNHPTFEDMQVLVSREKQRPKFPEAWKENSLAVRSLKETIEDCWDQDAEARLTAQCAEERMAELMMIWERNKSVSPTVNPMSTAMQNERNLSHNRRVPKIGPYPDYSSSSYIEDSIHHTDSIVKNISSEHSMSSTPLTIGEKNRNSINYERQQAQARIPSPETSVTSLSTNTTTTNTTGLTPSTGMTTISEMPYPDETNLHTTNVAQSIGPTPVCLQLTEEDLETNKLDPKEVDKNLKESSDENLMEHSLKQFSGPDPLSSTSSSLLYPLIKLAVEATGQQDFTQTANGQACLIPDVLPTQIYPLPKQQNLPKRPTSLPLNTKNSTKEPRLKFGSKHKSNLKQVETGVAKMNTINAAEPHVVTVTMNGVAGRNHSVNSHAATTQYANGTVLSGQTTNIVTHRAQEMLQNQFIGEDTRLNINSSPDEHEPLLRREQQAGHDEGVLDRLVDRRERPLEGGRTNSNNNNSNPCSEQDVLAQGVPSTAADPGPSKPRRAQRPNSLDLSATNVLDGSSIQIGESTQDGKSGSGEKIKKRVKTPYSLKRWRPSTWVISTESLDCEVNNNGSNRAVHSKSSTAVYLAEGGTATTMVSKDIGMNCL

B1: DGL289 (bispecific antibody, human IgG1, lambda)
heavy: EVQLLESGGGLVQPGGSLRLSCAASGFTFSIYAMSWVRQAPGKGLEWVSAISGSGGSTYYADSVKGRFTISRDNSKNTLYLQMNSLRAEDTAVYYCARDFDYWGQGTLVTVTSSPAPNLLGGPEVQLLESGGGLVQPGGSLRLSCAASGFTFSNAWMNWVRQAPGKGLEWVSSISSSSSYIYYADSVKGRFTISRDNSKNTLYLQMNSLRAEDTAVYYCARAVAAGGMFWGLDQWGQGTLVTVTSSASTKGPSVFPLAPSSKSTSGGTAALGCLVKDYFPEPVTVSWNSGALTSGVHTFPAVLQSSGLYSLSSVVTVPSSSLGTQTYICNVNHKPSNTKVDKKV[letters of human IgG1 Fc with L234A L235A G237A (EU numbers) left out]
light: QSVLTQPPSASGTPGQRVTISCSGSSSNIGSNYVYWYQQLPGTAPKLLIYGNINRPSGVPDRFSGSKSGTSASLAISGLRSEDEADYYCAAWDDSLNGRVFGGGTKLTVLPAPNLLGGPQSVLTQPPSASGTPGQRVTISCSGSRSNIGSNSVHWYQQLPGTAPKLLIYGNSNRPSGVPDRFSGSKSGTSASLAISGLRSEDEADYYCQSYDSSLNDHVVFGGGTKLTVLGQPKAAPSVTLFPPSSEELQANKATLVCLISDFYPGAVTVAWKADSSPVKAGVETTTPSKQSNNKYAASSYLSLTPEQWKSHRSYSCQVTHEGSTVEKTVAPTECS
Agonist activity, % Emax BMP9 [1]: 68 % Emax BMP9
Agonist activity, EC50 [1]: 2.4 nM
Agonist activity, EMAX (RLU) [1]: 1.8e+06 RLU
Agonist activity, % Emax BMP9 [2]: 68 % Emax BMP9
Agonist activity, EC50 [2]: 2.4 nM
Agonist activity, EMAX (RLU) [2]: 1.8e+06 RLU
pSMAD1 ELISA in HUVEC, RLU 15 minutes, at 0 nM (baseline) [3]: 4.6 RLU
pSMAD1 ELISA in HUVEC, RLU 15 minutes, at 0.4 nM [3]: 4.4 RLU
pSMAD1 ELISA in HUVEC, RLU 15 minutes, at 2 nM [3]: 4.4 RLU
pSMAD1 ELISA in HUVEC, RLU 15 minutes, at 10 nM [3]: 4.7 RLU
pSMAD1 ELISA in HUVEC, RLU 60 minutes, at 0 nM (baseline) [3]: 4.4 RLU
pSMAD1 ELISA in HUVEC, RLU 60 minutes, at 0.4 nM [3]: 5 RLU
pSMAD1 ELISA in HUVEC, RLU 60 minutes, at 2 nM [3]: 5.2 RLU
pSMAD1 ELISA in HUVEC, RLU 60 minutes, at 10 nM [3]: 6.9 RLU

B2: DGL290 (bispecific antibody, human IgG1, lambda)
heavy: EVQLLESGGGLVQPGGSLRLSCAASGFTFSNAWMNWVRQAPGKGLEWVSSISSSSSYIYYADSVKGRFTISRDNSKNTLYLQMNSLRAEDTAVYYCARAVAAGGMFWGLDQWGQGTLVTVTSSPAPNLLGGPEVQLLESGGGLVQPGGSLRLSCAASGFTFSIYAMSWVRQAPGKGLEWVSAISGSGGSTYYADSVKGRFTISRDNSKNTLYLQMNSLRAEDTAVYYCARDFDYWGQGTLVTVTSSASTKGPSVFPLAPSSKSTSGGTAALGCLVKDYFPEPVTVSWNSGALTSGVHTFPAVLQSSGLYSLSSVVTVPSSSLGTQTYICNVNHKPSNTKVDKKV[letters of human IgG1 Fc with L234A L235A G237A (EU numbers) left out]
light: QSVLTQPPSASGTPGQRVTISCSGSRSNIGSNSVHWYQQLPGTAPKLLIYGNSNRPSGVPDRFSGSKSGTSASLAISGLRSEDEADYYCQSYDSSLNDHVVFGGGTKLTVLPAPNLLGGPQSVLTQPPSASGTPGQRVTISCSGSSSNIGSNYVYWYQQLPGTAPKLLIYGNINRPSGVPDRFSGSKSGTSASLAISGLRSEDEADYYCAAWDDSLNGRVFGGGTKLTVLGQPKAAPSVTLFPPSSEELQANKATLVCLISDFYPGAVTVAWKADSSPVKAGVETTTPSKQSNNKYAASSYLSLTPEQWKSHRSYSCQVTHEGSTVEKTVAPTECS
Agonist activity, % Emax BMP9 [1]: 69 % Emax BMP9
Agonist activity, EC50 [1]: 5.3 nM
Agonist activity, EMAX (RLU) [1]: 1.82e+06 RLU
Agonist activity, % Emax BMP9 [2]: 69 % Emax BMP9
Agonist activity, EC50 [2]: 5.3 nM
Agonist activity, EMAX (RLU) [2]: 1.82e+06 RLU

B3: DGL291 (bispecific antibody, human IgG1, lambda)
heavy: EVQLLESGGGLVQPGGSLRLSCAASGFTFSSYAMSWVRQAPGKGLEWVANINQDGSEKNYVDSMRGRFTISRDNSKNTLYLQMNSLRAEDTAVYYCAREFDYWGQGTLVTVTSSPAPNLLGGPEVQLLESGGGLVQPGGSLRLSCAASGFTFSDYYMTWIRQAPGKGLEWVSSISGGSTYYADSRKGRFTISRDNSENTLYLQMNSLRAEDTAVYYCARDFGVAGWFGQYGMDVWGQGTLVTVSSASTKGPSVFPLAPSSKSTSGGTAALGCLVKDYFPEPVTVSWNSGALTSGVHTFPAVLQSSGLYSLSSVVTVPSSSLGTQTYICNVNHKPSNTKVDKKV[letters of human IgG1 Fc with L234A L235A G237A (EU numbers) left out]
light: QSVLAQPPSASGTPGQRVTISCSGSSSNIGSNYVYWYQQLPGTAPKLLIYGNNKRPSGVPDRFSGSKSGTSASLAISGLRSEDEADYYCAAWDDSLNGRVFGGGTKLTVLPAPNLLGGPQSVLTQPPSASGTPGQRVTISCTGSSSNIGAGYDVHWYQQLPGTAPKLLIYRSNQRPSGVPDRFSGSKSGTSASLAISGLRSEDEADYYCSSYAGNYNLVFGGGTKLTVLGQPKAAPSVTLFPPSSEELQANKATLVCLISDFYPGAVTVAWKADSSPVKAGVETTTPSKQSNNKYAASSYLSLTPEQWKSHRSYSCQVTHEGSTVEKTVAPTECS
Agonist activity, % Emax BMP9 [1]: 36 % Emax BMP9
Agonist activity, EC50 [1]: 0.2 nM
Agonist activity, EMAX (RLU) [1]: 952000 RLU
Agonist activity, % Emax BMP9 [2]: 36 % Emax BMP9
Agonist activity, EC50 [2]: 0.2 nM
Agonist activity, EMAX (RLU) [2]: 952000 RLU

B4: DGL292 (bispecific antibody, human IgG1, lambda)
heavy: EVQLLESGGGLVQPGGSLRLSCAASGFTFSDYYMTWIRQAPGKGLEWVSSISGGSTYYADSRKGRFTISRDNSENTLYLQMNSLRAEDTAVYYCARDFGVAGWFGQYGMDVWGQGTLVTVSSPAPNLLGGPEVQLLESGGGLVQPGGSLRLSCAASGFTFSSYAMSWVRQAPGKGLEWVANINQDGSEKNYVDSMRGRFTISRDNSKNTLYLQMNSLRAEDTAVYYCAREFDYWGQGTLVTVTSSASTKGPSVFPLAPSSKSTSGGTAALGCLVKDYFPEPVTVSWNSGALTSGVHTFPAVLQSSGLYSLSSVVTVPSSSLGTQTYICNVNHKPSNTKVDKKV[letters of human IgG1 Fc with L234A L235A G237A (EU numbers) left out]
light: QSVLTQPPSASGTPGQRVTISCTGSSSNIGAGYDVHWYQQLPGTAPKLLIYRSNQRPSGVPDRFSGSKSGTSASLAISGLRSEDEADYYCSSYAGNYNLVFGGGTKLTVLPAPNLLGGPQSVLAQPPSASGTPGQRVTISCSGSSSNIGSNYVYWYQQLPGTAPKLLIYGNNKRPSGVPDRFSGSKSGTSASLAISGLRSEDEADYYCAAWDDSLNGRVFGGGTKLTVLGQPKAAPSVTLFPPSSEELQANKATLVCLISDFYPGAVTVAWKADSSPVKAGVETTTPSKQSNNKYAASSYLSLTPEQWKSHRSYSCQVTHEGSTVEKTVAPTECS
Agonist activity, % Emax BMP9 (DiscoverX assay, average of two experiments) [4]: 57 % Emax BMP9
Agonist activity in DiscoverX assay, % Emax BMP9 [5]: 60 % Emax BMP9
Agonist activity, % Emax BMP9 [1]: 74 % Emax BMP9
Agonist activity, EC50 [1]: 0.09 nM
Agonist activity, EMAX (RLU) [1]: 1.96e+06 RLU
Agonist activity, % Emax BMP9 [2]: 74 % Emax BMP9
Agonist activity, EC50 [2]: 0.09 nM
Agonist activity, EMAX (RLU) [2]: 1.96e+06 RLU
pSMAD1 ELISA in HUVEC, RLU 15 minutes, at 0 nM (baseline) [3]: 4.6 RLU
pSMAD1 ELISA in HUVEC, RLU 15 minutes, at 0.4 nM [3]: 4.6 RLU
pSMAD1 ELISA in HUVEC, RLU 15 minutes, at 2 nM [3]: 5.7 RLU
pSMAD1 ELISA in HUVEC, RLU 15 minutes, at 10 nM [3]: 6.7 RLU
pSMAD1 ELISA in HUVEC, RLU 60 minutes, at 0 nM (baseline) [3]: 4.4 RLU
pSMAD1 ELISA in HUVEC, RLU 60 minutes, at 0.4 nM [3]: 23.7 RLU
pSMAD1 ELISA in HUVEC, RLU 60 minutes, at 2 nM [3]: 32.3 RLU
pSMAD1 ELISA in HUVEC, RLU 60 minutes, at 10 nM [3]: 33.9 RLU

B5: DGL810 (bispecific antibody, human IgG1, lambda)
heavy: EVQLLESGGGLVQPGGSLRLSCAASGFTFSDYYMTWIRQAPGKGLEWVSSISGGSTYYADSRKGRFTISRDNSENTLYLQMNSLRAEDTAVYYCARDFGVAGWFGQYGMDVWGQGTLVTVSSPLAPEVQLLESGGGLVQPGGSLRLSCAASGFTFSSYAMSWVRQAPGKGLEWVANINQDGSEKNYVDSMRGRFTISRDNSKNTLYLQMNSLRAEDTAVYYCAREFDYWGQGTLVTVTSSASTKGPSVFPLAPSSKSTSGGTAALGCLVKDYFPEPVTVSWNSGALTSGVHTFPAVLQSSGLYSLSSVVTVPSSSLGTQTYICNVNHKPSNTKVDKKV[letters of human IgG1 Fc with L234A L235A G237A (EU numbers) left out]
light: QSVLTQPPSASGTPGQRVTISCTGSSSNIGAGYDVHWYQQLPGTAPKLLIYRSNQRPSGVPDRFSGSKSGTSASLAISGLRSEDEADYYCSSYAGNYNLVFGGGTKLTVLPLAPQSVLAQPPSASGTPGQRVTISCSGSSSNIGSNYVYWYQQLPGTAPKLLIYGNNKRPSGVPDRFSGSKSGTSASLAISGLRSEDEADYYCAAWDDSLNGRVFGGGTKLTVLGQPKAAPSVTLFPPSSEELQANKATLVCLISDFYPGAVTVAWKADSSPVKAGVETTTPSKQSNNKYAASSYLSLTPEQWKSHRSYSCQVTHEGSTVEKTVAPTECS
Agonist activity, % Emax BMP9 (DiscoverX assay, average of two experiments) [4]: 76 % Emax BMP9

B6: DGL811 (bispecific antibody, human IgG1, lambda)
heavy: B5 heavy
light: B4 light
Agonist activity, % Emax BMP9 (DiscoverX assay, average of two experiments) [4]: 73 % Emax BMP9

B7: DGL812 (bispecific antibody, human IgG1, lambda)
heavy: B4 heavy
light: B5 light
Agonist activity, % Emax BMP9 (DiscoverX assay, average of two experiments) [4]: 62 % Emax BMP9
